In all, about 2,900 compounds were measured (“NF-kB SEAP reporter activity, fold change vs agonist alone”: median about 0.99, highest 2% from about 2.6 on). This is one part of the list.

Experiment [1] concerns RAW-Dual. The experiment can be described thus: NF-kB SEAP reporter activity, fold change vs agonist alone; cytotoxicity flag (confluency mask): not cytotoxic; higher = enhanced NF-kB activity. In a few lines:
(§1)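 After 50 nL of library stock was delivered by pin tool to RAW-Dual macrophages (50,000 cells/well, DMEM, 384-well plates), a PRR agonist was added 1 h later and the plates were kept at 37 °C, 5% CO2. Twenty hours later, IRF was read from supernatant by QuantiLuc luminescence and NF-κB by QuantiBlue absorbance at 620 nm. Reporter activity is stated as fold change over agonist-alone wells. Wells with IncuCyte confluency under 70% of agonist controls in both mask sets were counted as cytotoxic.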

The subject of experiment [2] is RAW-Dual. The experiment can be described thus: NF-kB SEAP reporter activity, fold change vs agonist alone; higher = enhanced NF-kB activity. In a few lines:
as §1

Experiment [3] relates to RAW-Dual. The experiment can be described thus: NF-kB SEAP reporter activity, fold change vs agonist alone; cytotoxicity flag (confluency mask): cytotoxic (confluency <70% of control); higher = enhanced NF-kB activity. The method, boiled down:
as §1

Where [4] appears, read: agonist: ODN 1826 (TLR9) 0.5 ug/mL.
[5] abbreviates: agonist: Pam2CSK4 (TLR2/6) 0.1 ug/mL.
Setting [6] is: agonist: Pam3CSK4 (TLR2/1) 0.1 ug/mL.
Setting [7] is: library stock concentration (final ~1000-fold dilution): 10 mM, cytotoxicity flag (confluency mask): not cytotoxic, agonist: Imiquimod (TLR7) […].
Setting [8] is: library stock concentration (final ~1000-fold dilution): 10 mM, cytotoxicity flag (confluency mask): not cytotoxic, agonist: MPLA (TLR4) […].

In the case of `O=[N+]([O-])c1ccc2c(c1)S(=O)(=O)C=C2` (library stock concentration (final ~1000-fold dilution): 10 mM), the “NF-kB SEAP reporter activity” value turned out to be 0.192 with RAW-Dual [1] (agonist: LPS (TLR4) 0.1 ug/mL), 0.17 in the experiment with RAW-Dual [1] (setting [4]), 0.0667 in the experiment with RAW-Dual [1] (setting [5]) and 0.127 with RAW-Dual [1] (setting [6]).
As for `O=[N+]([O-])c1ccc2c(c1)S(=O)(=O)C=C2`, the “NF-kB SEAP reporter activity” value with RAW-Dual [2] (setting [7]) is 0.217; in the experiment with RAW-Dual [2] (setting [8]) it was 0.231.
For the molecule `CC(=O)NC(CS)C(=O)O` (configuration not stated), the entries for the “NF-kB SEAP reporter activity” value with RAW-Dual [2] (setting [7]) and with RAW-Dual [2] (setting [8]) were 1.01 and 1.24, respectively.
Consider `CC(=O)NC(CS)C(=O)O` (configuration not stated) (library stock concentration (final ~1000-fold dilution): 10 mM), for which the “NF-kB SEAP reporter activity” value in the experiment on RAW-Dual [1] (agonist: LPS (TLR4) 0.1 ug/mL) worked out at 1.37; in the experiment on RAW-Dual [1] (setting [4]) it was 1.13; in the experiment on RAW-Dual [1] (setting [5]), 1.13; in the experiment with RAW-Dual [1] (setting [6]) it was 1.28.
As to `COc1cc2c(c(O)c1OC)-c1c(cc(OC)c(OC)c1OC)CC(C)C(C)C2` (configuration not stated), the results for the “NF-kB SEAP reporter activity” value with RAW-Dual [2] (setting [7]) and in the experiment with RAW-Dual [2] (setting [8]) were 1.01 and 1.21, respectively.
For the molecule `COc1cc2c(c(O)c1OC)-c1c(cc(OC)c(OC)c1OC)CC(C)C(C)C2` (configuration not stated) (library stock concentration (final ~1000-fold dilution): 10 mM), the “NF-kB SEAP reporter activity” value was 1.15 in the experiment on RAW-Dual [1] (agonist: LPS (TLR4) 0.1 ug/mL), 0.876 with RAW-Dual [1] (setting [4]), 0.82 with RAW-Dual [1] (setting [5]) and 1.02 in the experiment with RAW-Dual [1] (setting [6]).
Take `CCC(=O)N1CCC(Nc2ncnc3c2CN(c2cnc(OC)c(C(F)(F)F)c2)CC3)C1` (configuration not stated) (library stock concentration (final ~1000-fold dilution): 10 mM): the “NF-kB SEAP reporter activity” value was 1.49 in the experiment with RAW-Dual [1] (agonist: LPS (TLR4) 0.1 ug/mL), 1.08 in the experiment on RAW-Dual [1] (setting [4]), 0.957 in the experiment on RAW-Dual [1] (setting [5]) and 1.28 in the experiment with RAW-Dual [1] (setting [6]).
Turning to `CCC(=O)N1CCC(Nc2ncnc3c2CN(c2cnc(OC)c(C(F)(F)F)c2)CC3)C1` (configuration not stated), the “NF-kB SEAP reporter activity” value with RAW-Dual [2] (setting [7]) amounted to 1.1; with RAW-Dual [2] (setting [8]), 1.13.
For the molecule `COc1ccc(S(=O)(=O)NCc2ccc(C(=O)NCCc3ccc(Cl)cn3)cc2)cc1`, the “NF-kB SEAP reporter activity” value with RAW-Dual [2] (setting [7]) is 0.318; in the experiment on RAW-Dual [2] (setting [8]), 1.19.
For `COc1ccc(S(=O)(=O)NCc2ccc(C(=O)NCCc3ccc(Cl)cn3)cc2)cc1` (library stock concentration (final ~1000-fold dilution): 10 mM), the “NF-kB SEAP reporter activity” value in the experiment with RAW-Dual [1] (agonist: LPS (TLR4) 0.1 ug/mL) is 1.36; in the experiment on RAW-Dual [1] (setting [4]), 1.15; with RAW-Dual [1] (setting [5]), 0.849; with RAW-Dual [1] (setting [6]) it was 1.49.
As to `COc1nc(N)nc2c1ncn2C1OC(CO)C(O)C1O` (configuration not stated), the “NF-kB SEAP reporter activity” value was determined as 0.924 with RAW-Dual [2] (setting [7]) and 0.994 with RAW-Dual [2] (setting [8]).
`COc1nc(N)nc2c1ncn2C1OC(CO)C(O)C1O` (configuration not stated) (library stock concentration (final ~1000-fold dilution): 10 mM): the “NF-kB SEAP reporter activity” value with RAW-Dual [1] (agonist: LPS (TLR4) 0.1 ug/mL) was 1.43; in the experiment with RAW-Dual [1] (setting [4]) it was 0.996; in the experiment with RAW-Dual [1] (setting [5]), 1.08; in the experiment on RAW-Dual [1] (setting [6]) it was 1.23.
Turning to `COc1cc2c(cc1OC)CN(CCc1ccc(NC(=O)c3cc(OC)c(OC)cc3NC(=O)c3cnc4ccccc4c3)cc1)CC2` (library stock concentration (final ~1000-fold dilution): 10 mM), the “NF-kB SEAP reporter activity” value in the experiment on RAW-Dual [1] (agonist: LPS (TLR4) 0.1 ug/mL) worked out at 1.34; in the experiment with RAW-Dual [1] (setting [4]) it was 1.45; with RAW-Dual [1] (setting [5]), 1.25; in the experiment on RAW-Dual [1] (setting [6]), 1.19.
Consider `COc1cc2c(cc1OC)CN(CCc1ccc(NC(=O)c3cc(OC)c(OC)cc3NC(=O)c3cnc4ccccc4c3)cc1)CC2`, for which the “NF-kB SEAP reporter activity” value with RAW-Dual [2] (setting [7]) came to 0.976; with RAW-Dual [2] (setting [8]) it was 1.03.
As to `CN1CCC(c2c(O)cc(O)c3c(=O)cc(-c4ccccc4Cl)oc23)C(O)C1` (configuration not stated), the “NF-kB SEAP reporter activity” value with RAW-Dual [2] (library stock concentration (final ~1000-fold dilution): 10 mM, cytotoxicity flag (confluency mask): cytotoxic (confluency <70% of control), agonist: Imiquimod (TLR7) […]) is 0.203; with RAW-Dual [2] (library stock concentration (final ~1000-fold dilution): 10 mM, cytotoxicity flag (confluency mask): cytotoxic (confluency <70% of control), agonist: MPLA (TLR4) […]), 0.217.
For the molecule `CN1CCC(c2c(O)cc(O)c3c(=O)cc(-c4ccccc4Cl)oc23)C(O)C1` (configuration not stated) (library stock concentration (final ~1000-fold dilution): 10 mM), the “NF-kB SEAP reporter activity” value in the experiment on RAW-Dual [3] (agonist: LPS (TLR4) 0.1 ug/mL) came to 0.255; in the experiment on RAW-Dual [3] (setting [4]) it was 0.179; in the experiment on RAW-Dual [3] (setting [5]), 0.153; in the experiment with RAW-Dual [3] (setting [6]) it was 0.155.
In the case of `CC1CCOC2Cn3cc(C(=O)NCc4ccc(F)cc4F)c(=O)c(O)c3C(=O)N12` (configuration not stated) (library stock concentration (final ~1000-fold dilution): 10 mM), the “NF-kB SEAP reporter activity” value amounted to 0.989 in the experiment on RAW-Dual [1] (agonist: LPS (TLR4) 0.1 ug/mL), 0.999 in the experiment on RAW-Dual [1] (setting [4]), 1.09 in the experiment on RAW-Dual [1] (setting [5]) and 0.921 in the experiment with RAW-Dual [1] (setting [6]).
Take `CC1CCOC2Cn3cc(C(=O)NCc4ccc(F)cc4F)c(=O)c(O)c3C(=O)N12` (configuration not stated): the “NF-kB SEAP reporter activity” value with RAW-Dual [2] (library stock concentration (final ~1000-fold dilution): 2 mM, cytotoxicity flag (confluency mask): not cytotoxic, agonist: MPLA (TLR4) […]) came to 0.994; in the experiment with RAW-Dual [2] (setting [7]), 1.18; with RAW-Dual [2] (setting [8]), 0.999.
Take `CC1CCOC2Cn3cc(C(=O)NCc4ccc(F)cc4F)c(=O)c(O)c3C(=O)N12` (configuration not stated) (library stock concentration (final ~1000-fold dilution): 2 mM): the “NF-kB SEAP reporter activity” value with RAW-Dual [1] (agonist: LPS (TLR4) 0.1 ug/mL) was determined as 1.23; in the experiment on RAW-Dual [1] (setting [4]) it was 0.967; with RAW-Dual [1] (setting [5]), 0.958; in the experiment on RAW-Dual [1] (setting [6]) it was 0.873.
The matching figures for `CCOc1ccc(Cc2cc(C3OC(SC)C(O)C(O)C3O)ccc2Cl)cc1` (configuration not stated) (library stock concentration (final ~1000-fold dilution): 10 mM): 1.2, 1.13, 0.862 and 1.41.
For `CCOc1ccc(Cc2cc(C3OC(SC)C(O)C(O)C3O)ccc2Cl)cc1` (configuration not stated), the “NF-kB SEAP reporter activity” value in the experiment with RAW-Dual [2] (setting [7]) was found to be 1.19; in the experiment with RAW-Dual [2] (setting [8]), 1.17.
`COc1cc(-c2ccc(N=Nc3ccc4c(S(=O)(=O)O)cc(S(=O)(=O)O)c(N)c4c3O)c(OC)c2)ccc1N=Nc1ccc2c(S(=O)(=O)O)cc(S(=O)(=O)O)c(N)c2c1O` (library stock concentration (final ~1000-fold dilution): 10 mM): the “NF-kB SEAP reporter activity” value turned out to be 0.969 in the experiment on RAW-Dual [1] (agonist: LPS (TLR4) 0.1 ug/mL), 0.775 in the experiment with RAW-Dual [1] (setting [4]), 1.12 with RAW-Dual [1] (setting [5]) and 0.938 in the experiment with RAW-Dual [1] (setting [6]).
Turning to `COc1cc(-c2ccc(N=Nc3ccc4c(S(=O)(=O)O)cc(S(=O)(=O)O)c(N)c4c3O)c(OC)c2)ccc1N=Nc1ccc2c(S(=O)(=O)O)cc(S(=O)(=O)O)c(N)c2c1O`, the “NF-kB SEAP reporter activity” value in the experiment on RAW-Dual [2] (setting [7]) amounted to 0.656; with RAW-Dual [2] (setting [8]), 1.08.
The matching figures for `CCN(CC)CCCC(C)Nc1nc(C)cc(Nc2ccc3nc(C)cc(N)c3c2)n1.Cl.Cl.Cl` (configuration not stated): 1 and 1.16.
With `CCN(CC)CCCC(C)Nc1nc(C)cc(Nc2ccc3nc(C)cc(N)c3c2)n1.Cl.Cl.Cl` (configuration not stated) (library stock concentration (final ~1000-fold dilution): 10 mM), the “NF-kB SEAP reporter activity” value with RAW-Dual [1] (agonist: LPS (TLR4) 0.1 ug/mL) is 1.11; with RAW-Dual [1] (setting [4]) it was 1.1; with RAW-Dual [1] (setting [5]), 1.16; in the experiment on RAW-Dual [1] (setting [6]), 0.949.
`Cl.N=C(N)NCCCCC(N)C(=O)O` (configuration not stated): the “NF-kB SEAP reporter activity” value with RAW-Dual [2] (library stock concentration (final ~1000-fold dilution): 10 mM water, cytotoxicity flag (confluency mask): not cytotoxic, agonist: MPLA (TLR4) […]) was 1.08.
As for `Cl.N=C(N)NCCCCC(N)C(=O)O` (configuration not stated) (library stock concentration (final ~1000-fold dilution): 10 mM water), the “NF-kB SEAP reporter activity” value in the experiment with RAW-Dual [1] (agonist: LPS (TLR4) 0.1 ug/mL) worked out at 1.17; in the experiment with RAW-Dual [1] (setting [4]) it was 1.12; in the experiment on RAW-Dual [1] (setting [5]), 1.21; in the experiment on RAW-Dual [1] (setting [6]), 0.923.

(Values after the supplement of paper PMC10037445.)
